Measured values taken from article PMC6381112.
These are yes or no findings as the source states them, for the method shown. For part of these data: Binding seen in cells or lysates may run through a third protein. Some results given as binding are weak or reduced against the parent protein; the word gives no strength. For part of these data: Tags and fused reporters may be left off the sequences shown.

Chains of the proteins cited; added tags and fusions are not shown.
UniProt Q96AC1: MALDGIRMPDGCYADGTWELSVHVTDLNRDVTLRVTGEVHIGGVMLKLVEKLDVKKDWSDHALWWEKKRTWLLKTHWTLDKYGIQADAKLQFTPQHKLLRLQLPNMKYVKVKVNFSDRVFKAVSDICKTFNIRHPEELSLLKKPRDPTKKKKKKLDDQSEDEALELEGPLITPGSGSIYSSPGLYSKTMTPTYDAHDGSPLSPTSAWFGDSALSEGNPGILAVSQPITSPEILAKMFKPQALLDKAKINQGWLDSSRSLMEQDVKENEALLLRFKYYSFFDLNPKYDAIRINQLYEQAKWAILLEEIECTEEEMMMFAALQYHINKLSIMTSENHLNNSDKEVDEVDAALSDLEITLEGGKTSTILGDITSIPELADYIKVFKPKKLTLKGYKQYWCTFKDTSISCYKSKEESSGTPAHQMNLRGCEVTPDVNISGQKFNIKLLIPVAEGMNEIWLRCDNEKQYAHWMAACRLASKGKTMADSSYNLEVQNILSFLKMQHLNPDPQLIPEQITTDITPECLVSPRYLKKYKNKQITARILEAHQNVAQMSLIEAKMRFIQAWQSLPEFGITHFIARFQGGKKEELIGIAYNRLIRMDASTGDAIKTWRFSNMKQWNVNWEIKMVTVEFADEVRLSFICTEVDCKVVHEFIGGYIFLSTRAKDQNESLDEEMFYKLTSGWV

B1: pyrroline-5-carboxylate reductase 1 (PYCR1) (enzyme, UniProt P32322 1-319)
chain: MSVGFIGAGQLAFALAKGFTAAGVLAAHKIMASSPDMDLATVSALRKMGVKLTPHNKETVQHSDVLFLAVKPHIIPFILDEIGADIEDRHIVVSCAAGVTISSIEKKLSAFRPAPRVIRCMTNTPVVVREGATVYATGTHAQVEDGRLMEQLLSSVGFCTEVEEDLIDAVTGLSGSGPAYAFTALDALADGGVKMGLPRRLAVRLGAQALLGAAKMLLHSEQHPGQLKDNVSSPGGATIHALHVLESGGFRSLLINAVEASCIRTRELQSMADQEQVSPAAIKKTILDKVKLDSPAGTALSPSGHTKLLPRSLAPAGKD
B2: mRuby-PYCR1 (enzyme, UniProt P32322 1-319)
chain: B1 chain
B3: PYCR2 (enzyme, UniProt Q96C36 1-320)
chain: MSVGFIGAGQLAYALARGFTAAGILSAHKIIASSPEMNLPTVSALRKMGVNLTRSNKETVKHSDVLFLAVKPHIIPFILDEIGADVQARHIVVSCAAGVTISSVEKKLMAFQPAPKVIRCMTNTPVVVQEGATVYATGTHALVEDGQLLEQLMSSVGFCTEVEEDLIDAVTGLSGSGPAYAFMALDALADGGVKMGLPRRLAIQLGAQALLGAAKMLLDSEQHPCQLKDNVCSPGGATIHALHFLESGGFRSLLINAVEASCIRTRELQSMADQEKISPAALKKTLLDRVKLESPTVSTLTPSSPGKLLTRSLALGGKKD
B4: His-tagged PYCR1 (enzyme, UniProt P32322 1-319)
chain: B1 chain
B5: PYCRL (enzyme, UniProt Q53H96 1-274)
chain: MAAAEPSPRRVGFVGAGRMAGAIAQGLIRAGKVEAQHILASAPTDRNLCHFQALGCRTTHSNQEVLQSCLLVIFATKPHVLPAVLAEVAPVVTTEHILVSVAAGVSLSTLEELLPPNTRVLRVLPNLPCVVQEGAIVMARGRHVGSSETKLLQHLLEACGRCEEVPEAYVDIHTGLSGSGVAFVCAFSEALAEGAVKMGMPSSLAHRIAAQTLLGTAKMLLHEGQHPAQLRSDVCTPGGTTIYGLHALEQGGLRAATMSAVEAATCRAKELSRK
B6: pyrroline-5-carboxylate synthase (P5CS) (enzyme, UniProt P54886 1-795)
chain: MLSQVYRCGFQPFNQHLLPWVKCTTVFRSHCIQPSVIRHVRSWSNIPFITVPLSRTHGKSFAHRSELKHAKRIVVKLGSAVVTRGDECGLALGRLASIVEQVSVLQNQGREMMLVTSGAVAFGKQRLRHEILLSQSVRQALHSGQNQLKEMAIPVLEARACAAAGQSGLMALYEAMFTQYSICAAQILVTNLDFHDEQKRRNLNGTLHELLRMNIVPIVNTNDAVVPPAEPNSDLQGVNVISVKDNDSLAARLAVEMKTDLLIVLSDVEGLFDSPPGSDDAKLIDIFYPGDQQSVTFGTKSRVGMGGMEAKVKAALWALQGGTSVVIANGTHPKVSGHVITDIVEGKKVGTFFSEVKPAGPTVEQQGEMARSGGRMLATLEPEQRAEIIHHLADLLTDQRDEILLANKKDLEEAEGRLAAPLLKRLSLSTSKLNSLAIGLRQIAASSQDSVGRVLRRTRIAKNLELEQVTVPIGVLLVIFESRPDCLPQVAALAIASGNGLLLKGGKEAAHSNRILHLLTQEALSIHGVKEAVQLVNTREEVEDLCRLDKMIDLIIPRGSSQLVRDIQKAAKGIPVMGHSEGICHMYVDSEASVDKVTRLVRDSKCEYPAACNALETLLIHRDLLRTPLFDQIIDMLRVEQVKIHAGPKFASYLTFSPSEVKSLRTEYGDLELCIEVVDNVQDAIDHIHKYGSSHTDVIVTEDENTAEFFLQHVDSACVFWNASTRFSDGYRFGLGAEVGISTSRIHARGPVGLEGLLTTKWLLRGKDHVVSDFSEHGSLKYLHENLPIPQRNTN

Experiments:
[1] = biological target: kindlin-2 (human (endogenous in A549)) (UniProt Q96AC1); experiment: co-IP; A549 total cell lysates, IP with monoclonal anti-kindlin-2 antibody (clone 3A3.5) or irrelevant mouse IgG overnight at 4 °C, Protein A/G agarose, western blotting; also cells on stiff (40 kPa) or soft (0.35 kPa) hydrogels (more PYCR1 on stiff ECM) and cells on soft hydrogels with or without 10 mM MBCD (no change)
[2] = biological target: kindlin-2 (human (endogenous in A549)) (UniProt Q96AC1); experiment: co-IP; NCI-H358 cell lysates, IP with monoclonal anti-kindlin-2 antibody or irrelevant mouse IgG, western blotting
[3] = biological target: 3xFLAG-kindlin-2 (UniProt Q96AC1); experiment: co-IP; kindlin-2 KO A549 cells infected with lentivirus encoding 3xFLAG-kindlin-2 or control vector, IP with anti-FLAG M2 antibody, western blotting with kindlin-2 or PYCR1 antibodies
[4] = biological target: kindlin-2 (human (endogenous in A549)) (UniProt Q96AC1); experiment: co-IP; cytosolic fraction, mitochondrial fraction and total lysates of A549 cells, IP with anti-kindlin-2 antibody or irrelevant mouse IgG, western blotting; largest amount of PYCR1 from the mitochondrial fraction
[5] = biological target: mClover-kindlin-2 (UniProt Q96AC1); experiment: FRET or BRET; FLIM-FRET in fixed cells co-expressing mClover-tagged kindlin-2 (donor) and mRuby-PYCR1; kindlin-2 KO cells, and A549 cells on stiff or soft hydrogels (signal increased on stiff ECM)
[6] = biological target: GST-kindlin-2 (UniProt Q96AC1); experiment: pull-down; GST or GST-fusion proteins bound to glutathione-Sepharose beads incubated with purified His-tagged PYCR1 (0-40 μg ml^-1) for 2 h at 4 °C; washed with 20 mM Tris pH 7.5, 150 mM NaCl, 0.1% Triton; western blotting with anti-His and anti-GST; both purified

Binder	binding [1]	binding [2]	other results
B1	binds	binds	binding [3]: binds; binding [4]: binds
B2	–	–	binding [5]: binds
B3	binds	binds	–
B4	–	–	binding [6]: binds
B5	no binding	no binding	–
B6	no binding	no binding	–
